In PubChem BioAssay AID624296 (National Center for Advancing Translational Sciences (NCATS), 2012):
The campaign covered roughly 350,000 compounds. About 9,900 (2.8%) were called active. This list was built around the results that the source calls inconclusive (neither active nor inactive); the mix of calls is not that of the screen. Calls come from the whole dose curve; as a rule, active = well fitted activation curve with a large enough effect; inconclusive = small, poorly fitted or top-dose-only effect; inactive = no such curve, though single readings can be large or run the other way. Potencies of inconclusive entries are left out as doubtful fits.

Assay: A quantitative high throughput screen for small molecules that induce DNA re-replication in MCF 10a normal breast cells. For activity, positive = re-replication: % of control where 0% means no effect. Note: nearly all actives have a fitted effect of over 50% in size.
Settings: MCF 10A DNA re-replication, Hoechst nuclear intensity, 48 h; activity, positive = re-replication: at 46.1 µM (top of the series)
Potency is the fitted concentration of half-maximal effect; tags give direction and shape of the fitted curve.

Compound | Potency | activity, positive = re-replication
O=S(=O)([N-]c1nc2ccccc2nc1-n1cc[n+](Cc2ccccc2)c1)c1ccc(Br)cc1 | active: 18.4 µM | 
CCOC(=O)CSc1cc(CS(=O)c2ccc(Cl)cc2)nc(-c2ccccc2)n1 (configuration not stated) | inconclusive [activator, partial curve, poor fit] | 
CC(Sc1nc2ccccc2c(=O)n1C)C(=O)NC1CCCCC1C (configuration not stated) | inconclusive [activator, single point] | 
COC(=O)c1sccc1S(=O)(=O)Nc1ccc(N2CCCCC2)cc1 | inconclusive [activator, full curve, poor fit] | 
CCCCCCOc1ccc(N2C(=O)CC(SC(=NCC)NCC)C2=O)cc1 (configuration not stated) | inconclusive [activator, single point] | 
N#Cc1ccc(/C=C2\CCn3c2nc2cc(C(=O)O)ccc2c3=O)cc1 | inconclusive [activator, partial curve, poor fit] | 
CCC(=O)N1CCN(c2ccc(NC(=O)c3cc4ccccc4o3)cc2)CC1 | inconclusive [activator, single point] | 
NC(=O)c1cc(Br)cc(C2CCCCC2)c1O | inconclusive [activator, single point] | 
COc1cccc(C2c3c(C)nn(-c4ccc([N+](=O)[O-])cc4)c3N=C3C(=O)Nc4ccccc4N32)c1 (configuration not stated) | inconclusive [activator, partial curve, poor fit] | 
COC(=O)C1C(=O)N2CCCSC2=C(C#N)C1c1cccs1 (configuration not stated) | inconclusive [activator, full curve, poor fit] | 
COC1=C/C(=C/c2c(N)n3cc(C)sc3nc2=O)C=CC1=O | inconclusive [activator, single point] | 
N#CCCN1CCN(C(=S)c2ccc(-c3cccc(Cl)c3)o2)CC1 | inconclusive [activator, partial curve, poor fit] | 
CC(=O)Nc1ccc(S(=O)(=O)NCC2CCC(C(=O)NC3CCCCCC3)CC2)cc1 (configuration not stated) |  | inconclusive: -33.1% [activator]
N#C/C(C(=O)NCc1ccccc1)=C1/N=C(NC(=O)c2cccs2)c2ccccc21 | inconclusive [activator, single point] | 
O=C(CC1(O)C(=O)Nc2ccccc21)c1cccc(-n2cccc2)c1 (configuration not stated) | active: 1.46 µM | 
O=C(CSc1nc2ccccc2c(=O)n1-c1ccc(Cl)cc1)N/N=C/C=C/c1ccccc1[N+](=O)[O-] | inconclusive [activator, partial curve, poor fit] | 
CCOC(=O)c1c(C)[nH]c(C(=O)CSc2nnc(CC(C)c3ccccc3)o2)c1C (configuration not stated) | inconclusive [activator, partial curve] | 
O=C(Nc1ccc(Br)cc1)c1cccn1-c1ncc(C(F)(F)F)cc1Cl | inconclusive [activator, partial curve, poor fit] | 
O=C(N1CCOCC1)N1CCN(S(=O)(=O)N2CCCCC2)CC1 |  | inactive: 0.67%
CCOc1ccc(C(=O)C[n+]2ccccc2C)cc1 |  | inactive: 1.73%
C[C@@H](CN1C(=O)C(=O)NC[C@@H]1C)NC(=O)CC12CC3CC(CC(C3)C1)C2 |  | inactive: 3.21%
O=C(CCC(=O)N/N=C/c1cc(Cl)cc(Cl)c1O)NCc1ccccc1 | inconclusive [activator, partial curve, poor fit] | 
Cc1ccccc1OCCCCN1CCCCC1 | inconclusive [activator, partial curve, poor fit] | 

Compound | Potency | activity, positive = re-replication
COc1ccc(/C=N/Nc2ncnc3sc4c(c23)CCCC4)cc1O | inconclusive [activator, single point] | 
COc1ccc(N(C)S(=O)(=O)c2cccc(C(=O)NCC(c3ccco3)N3CCCC3)c2)cc1 (configuration not stated) |  | inactive: 5.53%
CN(C)Cc1nc2ccccc2c(=O)n1Cc1nc(-c2cccc([N+](=O)[O-])c2)cs1 |  | inactive: 14.3%
C/C(=N\N=C1\NC(=O)C(Cc2ccccc2)S1)c1ccccc1 (configuration not stated) | inconclusive [activator, single point] | 
COC(=O)/C=C\C(=O)Nc1cccc([N+](=O)[O-])c1 | inconclusive [activator, single point] | 
CCOc1ccc2c(c1)C(C)=CC(C)(C)N2 | inconclusive [activator, single point] | 
CCCc1ccc(OCCNC(=O)CC)cc1 |  | inactive: -10.2%
COC(=O)/C=C/c1ccc2c(c1)S(=O)(=O)N(c1cccc(OC)c1)[C@H]2CC(=O)OC |  | inactive: 17.6%
CS(=O)(=O)c1ccc(Sc2nc3ccccc3s2)c([N+](=O)[O-])c1 | inconclusive [activator, partial curve] | 
O=C(C1CCN(S(=O)(=O)c2ccc(F)cc2)CC1)N1CCCC(C(F)(F)F)C1 (configuration not stated) |  | inactive: 14.6%
Cc1onc(-c2ccccc2)c1C(=O)NC(=S)Nc1sc2c(c1C#N)CCCC2 | inconclusive [activator, single point] | 
O=C(C1CCN(c2nnc(N3CCCC3=O)s2)CC1)N1CCN(Cc2ccc3c(c2)OCO3)CC1 |  | inactive: 6.19%
Cc1cc(/C=C2\C(=N)N3N=C(c4ccco4)SC3=NC2=O)c(C)n1Cc1ccccc1 | active: 20.6 µM | 
Cc1ccc(C(=O)NC(=S)Nc2nc(-c3cccc([N+](=O)[O-])c3)cs2)c(Cl)c1 | inconclusive [activator, full curve] | 
Cn1c(=N)n(CC(=O)c2ccc(Br)cc2)c2ccccc21 | inconclusive [activator, partial curve, poor fit] | 
O=C(Nc1cccc(F)c1)N1CC=C(c2ccc(Cl)cc2)CC1 | inconclusive [activator, single point] | 
CCn1nc(NC(=O)c2ccncc2)c2cc3ccc(C)cc3nc21 | inconclusive [activator, single point] | 
COc1cc2c(cc1OC)C(c1ccc(-c3cc(Cl)ccc3Cl)o1)=NCC2 | inconclusive [activator, partial curve, poor fit] | 
CCC1(C)Cc2c(sc3nnn(Cc4ccccc4Cl)c(=O)c23)CO1 (configuration not stated) | active: 16.4 µM | 
Cc1nc2c(c3c1[nH]c1ccccc13)C(O)CC(C)(C)C2 (configuration not stated) | active: 18.4 µM | 
CCN(CC)Cc1cc(C(C)=O)ccc1OCC(C)C |  | inactive: 25.1%
Cn1c(-c2ccc3c(c2)OCO3)cnc1NCc1ccccc1 | active: 25.9 µM | 
O=C(CSc1nnc(CNc2ccc(F)cc2)o1)c1ccccc1 |  | inactive: -34.7%

Compound | Potency | activity, positive = re-replication
COc1cc(CCc2ccccc2)c(C(=O)O)c(O)c1C/C=C(/C)CCC=C(C)C | inconclusive [activator, partial curve, poor fit] | 
C=CCn1c(=O)c(C(=O)NC(C)c2ccccc2)c(O)c2ccccc21 (configuration not stated) | inconclusive [activator, full curve] | 
CCN(CC)CCNc1ccnc2cc(Cl)ccc12 | inconclusive [activator, single point] | 
CCCOc1ccc2cc(C(=O)NCc3ccccc3)c(=O)oc2c1 | active: 23.1 µM | 
O=C(O)c1ccc(NN=Cc2cc(=O)[nH]c(=O)[nH]2)cc1 |  | inactive: -5.96%
CC(=O)c1cc(-c2ccccc2)n(CC(=O)Nc2cccc(C)c2)c1C | inconclusive [activator, single point] | 
COc1ccc(-c2nc3cnccn3c2Nc2ccc(C)cc2)cc1 |  | inactive: 0.291%
CC(C)N1C/C(=C/c2cccnc2)C(=O)/C(=C/c2cccnc2)C1 | active: 1.16 µM | 
COc1ccc(CCNC2CCC(c3ccccc3)CC2)cc1 (configuration not stated) | inconclusive [activator, partial curve] | 
COc1ccc(N2C(=O)CC(NNc3ncc(Cl)cc3Cl)C2=O)cc1 (configuration not stated) |  | inactive: 25.3%
COc1ccc2c(c1)O[C@@H](c1cccc(C(F)(F)F)c1)[C@H](OC(=O)Nc1ccc(OC(F)F)cc1)C2=O | inconclusive [activator, partial curve, poor fit] | 
Cc1cccc(C(=O)OCC(=O)NC(C)C2CC3CCC2C3)c1O (configuration not stated) |  | inactive: -1.59%
CCC1(C)Cc2c(sc3c2c(=O)n(-c2ccccc2)c(=O)n3C)CO1 (configuration not stated) | inconclusive [activator, partial curve, poor fit] | 
Cc1ccc2[nH]c(C(=O)N3CCC(C(N)=O)CC3)cc2c1 | inconclusive [activator, single point] | 
FC(F)(F)COc1nc(N2CCOCC2)nc(N(c2ccccc2)c2ccccc2)n1 | inconclusive [activator, single point] | 
CC(C)C(C)(C#N)NC(=O)CSc1nnc(C(F)(F)F)n1C (configuration not stated) | inconclusive [activator, full curve, poor fit] | 
COc1ccc2ccccc2c1/C=N/Nc1cccc(C(=O)O)c1 | inconclusive [activator, single point] | 
O=C1CN(C(=O)c2cc(F)cc(F)c2)c2ccccc2N1 | inconclusive [activator, single point] | 
Oc1cccc(/C=N/N=C/c2cccc(O)c2O)c1O |  | inactive: 12.8%
Cc1ccc(-c2nnc(NCc3nc4ccccc4[nH]3)c3ccccc23)cc1S(=O)(=O)N(C)C | inconclusive [activator, partial curve, poor fit] | 
Cc1ccc(S(=O)(=O)N2[C@@H](c3ccc(Cl)cc3)C(C(=O)O)=C[C@H]2CC2CCCC2)cc1 | inconclusive [activator, partial curve, poor fit] | 
